Source: the supplement of paper PMC9433436
± gives the standard deviation of the averaged measurements. Whole data set: some 4,100 sequences, median “relative kcat/Km (krel) vs genomic leader AAAGAU” near 1.7, cut for the highest 2% near 6.5. Only a part is listed here, and it is no random draw.

Biological target: T1, E. coli RNase P holoenzyme (M1 P RNA + rnpA protein) (UniProt P0A7Y8)
T1 sequence: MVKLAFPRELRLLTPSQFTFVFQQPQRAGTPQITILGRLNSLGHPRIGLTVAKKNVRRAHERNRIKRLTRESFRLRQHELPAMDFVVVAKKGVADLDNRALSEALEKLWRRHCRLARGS
Assay: relative kcat/Km (krel) vs genomic leader AAAGAU (relative (reference leader = 1)); higher = faster RNase P cleavage
Protocol: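 HTS-Kin: a pool of ptRNA-Met (21C construct) with all 4096 combinations of 5' leader nucleotides N(-6) to N(-1) was processed in vitro by E. coli RNase P (P RNA + rnpA/C5 protein) under multiple-turnover conditions at 37 C, pH 8, 17.5 mM MgCl2. Residual substrate was Illumina-sequenced at several fractions reacted, and relative kcat/Km (krel) was computed by internal competition kinetics, calibrated to the genomic leader (AAAGAU = 1). The listed hexamer is the varied N(-6)..N(-1) leader (DNA letters), and it sits between a fixed 5' stem-loop flank (GCAUGCACGAAAGUGCGUGCUAUGAA) and the mature tRNA-Met starting GGCUACGUAGCUCAGUUGG. Two technical replicates are averaged.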

[1] = fraction of substrate reacted: ~9-10% (9.79% repeat 1, 9.1% repeat 2)
[2] = fraction of substrate reacted: ~13-16% (15.68% repeat 1, 13.17% repeat 2)
[3] = fraction of substrate reacted: ~26-29% (28.66% repeat 1, 26.4% repeat 2)

Row | Sequence | relative kcat/Km [1] | relative kcat/Km [2] | relative kcat/Km [3]
1 | GCCGCC | 2.33 ± 1.2 | 3.21 ± 1.2 | 5.43 ± 2.6
2 | GGTTCC | 1.32 ± 0.21 | 0.979 ± 0.62 | 1.42 ± 0.66
3 | AAATTT | 2.29 ± 0.55 | 2.26 ± 0.32 | 2.65 ± 0.88
4 | ATCGGG | 0.593 ± 0.22 | 0.912 ± 0.81 | 0.785 ± 0.63
5 | TGATAT | 1.84 ± 0.025 | 3.77 ± 0.75 | 6.11 ± 3.1
6 | TCTAAA | 2.76 ± 1.5 | 3.02 ± 0.26 | 4.21 ± 1.6
7 | ATTCGA | 3.31 ± 1.6 | 3.17 ± 0.55 | 5 ± 2.2
8 | CGTGGT |  |  | 0.634 ± 0.27
9 | TCTCAT | 3.52 ± 0.79 | 4.87 ± 1.2 | 6.39 ± 2.9
10 | CGGCGG | 0.473 ± 0.059 |  | 
11 | GTGGAG |  |  | 1.02 ± 0.88
12 | CGCAAA | 2.58 ± 0.29 | 3.95 ± 1.1 | 4.9 ± 1.9
13 | CCCAGC | 1.94 ± 0.75 | 2.65 ± 1.3 | 4.66 ± 1.8
14 | TAACCG |  |  | 0.9 ± 0.51
15 | TAGGTG |  |  | 0.812 ± 0.66
16 | GGATCA | 0.973 ± 0.2 | 1.04 ± 0.42 | 1.53 ± 0.71
17 | TTCGCA | 4.21 ± 0.84 | 6.08 ± 1.7 | 
18 | TGCTGA | 1.907 ± 0.0028 | 1.69 ± 0.5 | 2.71 ± 1
19 | ACCGCT | 0.47 ± 0.2 |  | 1.19 ± 0.26
20 | CTTGGT |  |  | 0.402 ± 0.23
21 | TCCTTT | 3.7 ± 1.8 | 4.6 ± 0.8 | 
22 | CACACT | 2.56 ± 0.39 | 3.16 ± 0.72 | 4.82 ± 1.5
23 | AATCTC | 1.38 ± 0.14 | 1.64 ± 0.4 | 1.95 ± 0.53
24 | GATTCG |  |  | 0.817 ± 0.65
25 | GCAGTT | 0.536 ± 0.36 | 0.866 ± 0.18 | 0.976 ± 0.063
26 | TTTAAC | 2.8 ± 0.84 | 3.648 ± 0.032 | 4.86 ± 1.9
27 | CGGTGC | 0.76 ± 0.49 | 0.769 ± 0.23 | 0.969 ± 0.17

Row | Sequence | relative kcat/Km [1] | relative kcat/Km [2] | relative kcat/Km [3]
28 | TATTAT | 4.02 ± 1.1 | 5.95 ± 1.7 | 9.03 ± 4.1
29 | TAACAA | 1.82 ± 1.3 | 2.15 ± 0.13 | 2.99 ± 0.79
30 | TTGCCC | 1.55 ± 1.3 | 1.28 ± 0.44 | 1.91 ± 0.28
31 | GCGGGC | 0.925 ± 0.52 | 1.46 ± 1.3 | 1.29 ± 1.2
32 | CTTGAT |  | 0.824 ± 0.72 | 1.11 ± 0.45
33 | AGTCAG | 2.12 ± 2 | 1.91 ± 0.42 | 3.69 ± 0.62
34 | TACGCT | 2.94 ± 1.9 | 2.46 ± 0.7 | 3.68 ± 1.8
35 | GGAACG | 0.645 ± 0.46 |  | 0.746 ± 0.21
36 | TTCCGA | 4.31 ± 1.2 | 6.28 ± 2 | 9.5 ± 4.6
37 | GCTCCA | 1.7 ± 1.3 |  | 1.07 ± 0.51
38 | CAAAAC | 1.4 ± 0.17 | 1.59 ± 0.4 | 2.51 ± 0.41
39 | GATTTG |  | 0.827 ± 0.14 | 1.13 ± 0.83
40 | CGGGAT |  | 1.32 ± 0.55 | 1.75 ± 1.6
41 | GTTTCT | 3.22 ± 1.4 | 3.27 ± 0.61 | 4.73 ± 1.5
42 | GCCGAA | 3.56 ± 1.2 | 4.16 ± 0.78 | 6.35 ± 2.4
43 | CGAGCT | 1.06 ± 0.76 |  | 1.05 ± 0.42
44 | CCAGTT | 1.98 ± 0.65 | 1.24 ± 0.19 | 0.893 ± 0.45
45 | CCAATA | 0.695 ± 0.4 |  | 1.1 ± 0.25
46 | GGGGCA | 0.654 ± 0.35 | 1.18 ± 0.32 | 1.22 ± 0.88
47 | TTTAAA | 3.37 ± 1.6 | 3.88 ± 0.2 | 5.35 ± 2.1
48 | ACTTAT | 3.63 ± 1.5 | 4.92 ± 0.71 | 6.44 ± 2.8
49 | TCAGAC | 2.89 ± 0.81 | 3.55 ± 0.82 | 4.62 ± 1.8
50 | TCTTTA | 2.54 ± 1.4 | 2.57 ± 0.1 | 3.16 ± 1.1
51 | GTTATG |  | 1.56 ± 0.24 | 3.32 ± 0.7
52 | ATCATA | 3.61 ± 1.8 | 4.31 ± 0.3 | 5.9 ± 2.2
53 | AATAGG |  |  | 1.45 ± 0.4
54 | TAAACC | 1.52 ± 0.58 | 1.37 ± 0.18 | 1.68 ± 0.3

Row | Sequence | relative kcat/Km [1] | relative kcat/Km [2] | relative kcat/Km [3]
55 | CATCGA | 3.72 ± 1.8 | 4.33 ± 0.91 | 5.24 ± 2.1
56 | CCCGAT | 2.59 ± 0.49 | 2.76 ± 1.2 | 3.21 ± 0.9
57 | GGCGAG |  |  | 2.16 ± 0.18
58 | AGACAA | 3.11 ± 2.3 | 2.95 ± 0.47 | 4.55 ± 1.7
59 | GATTCT | 1.89 ± 0.36 | 3.34 ± 0.97 | 4.25 ± 1.6
60 | TAAGCG |  |  | 0.846 ± 0.39
61 | TTGCAT | 1.76 ± 0.73 | 1.954 ± 0.0045 | 3.61 ± 1.6
62 | CCTTGT |  |  | 1.54 ± 1.2
63 | TTAGTT | 0.656 ± 0.62 |  | 1.66 ± 1
64 | ACAGTA | 1.54 ± 0.77 | 1.23 ± 0.58 | 1.37 ± 0.085
65 | CGCACC | 1.49 ± 0.45 | 2.44 ± 0.52 | 3.15 ± 1.3
66 | TATCCC |  | 1.82 ± 1.3 | 1.98 ± 0.047
67 | TGCCCC | 2.02 ± 0.15 | 1.91 ± 0.36 | 2.67 ± 0.78
68 | TTCGAC | 5.66 ± 1.9 | 7.11 ± 1.7 | 10.2 ± 4.3
69 | TCGGCC | 0.664 ± 0.36 | 1.1 ± 0.77 | 0.76 ± 0.27
70 | CTGGCC |  | 0.507 ± 0.38 | 
71 | GGACGC | 1.85 ± 0.16 | 1.99 ± 1.2 | 2.74 ± 0.9
72 | TAGATG |  |  | 1.34 ± 0.28
73 | GATGTC |  | 1.01 ± 0.36 | 0.94 ± 0.016
74 | CCCCTA | 1.56 ± 0.18 | 2.01 ± 0.17 | 2.8 ± 0.9
75 | CGTAAG | 2.41 ± 1.1 | 2 ± 0.73 | 3.38 ± 0.66
76 | GATAGC | 1.91 ± 0.41 | 2.11 ± 0.058 | 2.9 ± 1.1
77 | TCTACT | 2.22 ± 1.3 | 1.61 ± 0.15 | 2.55 ± 0.53
78 | GCGAAA | 2.4 ± 0.62 | 1.36 ± 0.072 | 2.16 ± 0.076
79 | GAGAAC |  | 2.42 ± 0.091 | 3.29 ± 0.67
80 | TCGCCT | 1.77 ± 0.043 | 2.41 ± 0.9 | 3.13 ± 1.1
81 | CGCTCA | 3.76 ± 1.1 | 3.59 ± 1.8 | 4.4 ± 1.5

Row | Sequence | relative kcat/Km [1] | relative kcat/Km [2] | relative kcat/Km [3]
82 | TAGCGC | 1.86 ± 0.53 | 1.68 ± 0.48 | 2.29 ± 1.1
83 | ACGACT | 0.558 ± 0.33 | 0.742 ± 0.21 | 1.07 ± 0.13
84 | ACCCGA | 3.55 ± 0.39 | 4.06 ± 0.66 | 5.44 ± 1.5
85 | TAGACG | 0.864 ± 0.52 | 0.847 ± 0.36 | 1.52 ± 0.046
86 | GAGCCC | 1.48 ± 0.67 | 1.31 ± 1.3 | 1.78 ± 0.8
87 | AACGTT | 0.929 ± 0.44 | 1.67 ± 0.47 | 1.77 ± 0.52
88 | GTGTTG |  |  | 0.805 ± 0.08
89 | TTGGGA | 1.09 ± 0.89 |  | 2.06 ± 1.8
90 | CGCGTC | 2.1 ± 1.4 | 1.92 ± 0.16 | 1.6 ± 0.28
91 | TCCCAC | 4.44 ± 1.1 | 5.53 ± 1.1 | 7.79 ± 3
92 | CCTCAG |  | 1.23 ± 0.065 | 1.83 ± 0.32
93 | CCGGGA | 0.744 ± 0.73 |  | 0.729 ± 0.063
94 | GCGCAA | 1.57 ± 0.93 | 1.43 ± 0.47 | 2.1 ± 0.36
95 | CGGGCA | 1.28 ± 0.55 | 0.965 ± 0.75 | 0.825 ± 0.17
96 | ATCGGC |  |  | 1.97 ± 1.5
97 | CGCAAC | 2.82 ± 1.1 | 2.42 ± 0.63 | 4.11 ± 1.6
98 | GGCTGT | 0.764 ± 0.28 | 1.3 ± 1 | 1.42 ± 0.93
99 | TGCATC | 2.12 ± 1.2 | 1.5 ± 0.48 | 2.05 ± 0.7
100 | AGAGCT | 0.812 ± 0.35 | 1.11 ± 0.015 | 1.09 ± 0.054
101 | AGCGCA | 2.02 ± 0.99 | 2.06 ± 0.52 | 3.01 ± 0.81
102 | ATCCAG | 1.67 ± 0.93 | 1.77 ± 0.18 | 3.83 ± 0.61
103 | ATTAAT | 3.16 ± 1.7 | 3.1778 ± 0.0021 | 4.5 ± 1.7
104 | TCGGAT |  |  | 1.48 ± 1.2
105 | GGATAT | 1.83 ± 0.13 | 2.63 ± 0.49 | 3.4 ± 1.9
